Reference: paper PMC4242493
Some of the results follow. The list includes weakly bound sequences.

Biological target: MaxL homodimer (UniProt P61244)
Experiment: universal protein-binding microarray (PBM)
Details: PBS-based mixture, 10 nM His-tagged protein dimer, 2% milk, 200 ng/uL BSA, 50 ng/uL salmon testes DNA, 0.02% TX-100; detection with Alexa 488 anti-His …; high values mean tight binding; most listed sequences are background and not binding sites; double strand, one strand shown

Chain of UniProt P61244 (P61244 whole entry): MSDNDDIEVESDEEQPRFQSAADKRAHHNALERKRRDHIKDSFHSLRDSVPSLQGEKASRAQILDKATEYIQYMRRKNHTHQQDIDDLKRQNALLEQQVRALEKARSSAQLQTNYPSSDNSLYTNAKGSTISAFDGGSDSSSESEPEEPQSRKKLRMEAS

| Sequence | binding signal (normalized occupancy) |
| --- | --- |
| AGATTGGA | 0.0757 |
| CTCGTACA | 0.0824 |
| ATCAAACA | 0.0837 |
| AACTGGCC | 0.0714 |
| GGATCCCC | 0.0758 |
| TGCTGTAA | 0.071 |
| AAATCGCT | 0.0685 |
| CGTCTTGC | 0.0704 |
| AGATCGCT | 0.0709 |
| ATGGGGAA | 0.0844 |
| CCATACGC | 0.0803 |
| AGCCTGAA | 0.073 |
| ACTGAGAG | 0.0734 |
| AGCTGACC | 0.0672 |
| CCAGGAGC | 0.0656 |
| ATTATAAT | 0.0809 |
| GACATCAA | 0.0726 |
| AATTACGA | 0.0775 |
| AAAGAAAG | 0.0763 |
| AAGCCAGA | 0.0728 |
| AAAGAAGT | 0.0706 |
| AAGTCGGC | 0.0693 |
| GATAGTGA | 0.0749 |
| ATTCATCA | 0.088 |
| ACATGACG | 0.0854 |

| Sequence | binding signal (normalized occupancy) |
| --- | --- |
| AATATACG | 0.0866 |
| TATAGAAA | 0.0822 |
| AAAGCGAA | 0.0655 |
| AGGGGATG | 0.0818 |
| AGTCCCGC | 0.0715 |
| ACCCACGA | 0.0913 |
| CAGCGTAG | 0.0714 |
| AGCGTTAA | 0.0712 |
| AAACAGCA | 0.0759 |
| AGCGCCTA | 0.0724 |
| ACGCTTCG | 0.0784 |
| CTTAGAAA | 0.0689 |
| CAAATCTG | 0.0784 |
| CGGGTAAC | 0.076 |
| ATAAGGTC | 0.0876 |
| CGTGCGTA | 0.0916 |
| AGGGAAAC | 0.0757 |
| GTGCAACA | 0.08 |
| CAGAAACA | 0.0809 |
| TAAGCGTA | 0.073 |
| AAATAAGG | 0.0746 |
| ACGTCACC | 0.0804 |
| GAACTACA | 0.0775 |
| CAGTCTGG | 0.0673 |
| AGCTACGG | 0.0724 |

| Sequence | binding signal (normalized occupancy) |
| --- | --- |
| AAGGATCG | 0.0776 |
| CGGTAAAG | 0.0763 |
| AGGCGGTA | 0.0713 |
| AGATGCGA | 0.0739 |
| CCTGCCCC | 0.0701 |
| AACGATTC | 0.0776 |
| TAGGCCAA | 0.0694 |
| TTGCACAA | 0.0749 |
| ATCATTCA | 0.0816 |
| GTCGCAAC | 0.0753 |
| ACAGTGGG | 0.0738 |
| ACGTCTCC | 0.0769 |
| AGGAAGCA | 0.0832 |
| CGAGAATC | 0.0777 |
| AGGACTCA | 0.0729 |
| CACCTCTA | 0.0765 |
| ACCACCCC | 0.0933 |
| GCAGACAC | 0.0738 |
| ACAACTAG | 0.0713 |
| CTTACCCA | 0.0749 |
| GGCCTGTA | 0.073 |
| TAACGAAA | 0.0728 |
| CTTCTATA | 0.0788 |
| AAAGAGAG | 0.0753 |
| CAGACATA | 0.0825 |

| Sequence | binding signal (normalized occupancy) |
| --- | --- |
| AAGCACGG | 0.0779 |
| AGGTTACT | 0.0732 |
| TCTTATCA | 0.0736 |
| TGCGCAAA | 0.0708 |
| ACTCGAGT | 0.074 |
| GGTAAGCA | 0.0773 |
| CGTAACAG | 0.0767 |
| CCTCTGGC | 0.0664 |
| AAACAGGA | 0.0726 |
| CGGTTGAA | 0.0733 |
| CAAGACAG | 0.0705 |
| AGAATCCT | 0.0738 |
| GCCACGAA | 0.0728 |
| ATGTGTTC | 0.0899 |
| ATACATTG | 0.0872 |
| ACCTAATC | 0.0736 |
| ACCAAAAA | 0.0707 |
| CCGTGTCC | 0.0754 |
| AGAGCAGC | 0.0753 |
| ATAGAATG | 0.0829 |
| ACTTTAGA | 0.0757 |
| ATAAACAT | 0.0777 |
| GGCGAGCC | 0.0663 |
| GGCTTGAA | 0.0701 |
| GTGCCCCA | 0.0739 |

| Sequence | binding signal (normalized occupancy) |
| --- | --- |
| AGTCAATA | 0.0711 |
| CGCTTAAG | 0.0676 |
| GCGCAGCA | 0.0701 |
| CATGGGGA | 0.1 |
| GACTAGCC | 0.0707 |
| AGCCTATC | 0.074 |
| TCGCGCAA | 0.0752 |
| ACAAGCGT | 0.0815 |
| GAGCCGGA | 0.0684 |
| CAACAGGG | 0.0723 |
| ACTATGGA | 0.0798 |
| GTGGCGTA | 0.0786 |
| GGTTTTTA | 0.0791 |
| CATCACCG | 0.0763 |
| CCGGCGGC | 0.0646 |
| TATCTACA | 0.0817 |
| GGCGGCAC | 0.0706 |
| CGGTGGTA | 0.0825 |
| AGAGGGCG | 0.0704 |
| CGCAAAGA | 0.0733 |
| AAGTTAAC | 0.0783 |
| AGACGTTA | 0.0775 |
| CTCTTCGC | 0.0753 |
| GGGTTTAA | 0.078 |
| CAATGGAC | 0.073 |

| Sequence | binding signal (normalized occupancy) |
| --- | --- |
| ATAACCAA | 0.0794 |
| ATAAAAGA | 0.0759 |
| ACAGCTCT | 0.0692 |
| AATACAAC | 0.0734 |
| ACAGATTA | 0.075 |
| GAATGGGA | 0.0752 |
| CCAGCACA | 0.084 |
| CTATAACC | 0.0895 |
| ATTTAAAC | 0.0836 |
| GAGTTATC | 0.0757 |
| ATGTAACG | 0.0911 |
| GATAACAA | 0.0782 |
| ACAGATGC | 0.0818 |
| CAAAACCA | 0.075 |
| CCTGCGGC | 0.0694 |
| GCTAAATA | 0.079 |
| CTAACAGC | 0.076 |
| AACATCGT | 0.0844 |
| AGATAATC | 0.0755 |
| CGGAACAG | 0.0673 |
| ATGTGCTA | 0.0849 |
| GTTTCACA | 0.0775 |
| CATCTACA | 0.0833 |
| CCAGCTAC | 0.0747 |
| CGGCTACA | 0.0683 |

| Sequence | binding signal (normalized occupancy) |
| --- | --- |
| TAAAGCGA | 0.0693 |
| ACAACAAG | 0.081 |
| CTCTCAGA | 0.0746 |
| CGCATGCC | 0.116 |
| GTTCGTTA | 0.0705 |
| AGAGAACA | 0.0716 |
| ACTGACGA | 0.0719 |
| CGTAGGAA | 0.0856 |
| CGTGAGCA | 0.0782 |
| CATTACGC | 0.0764 |
| GACTCATC | 0.0776 |
| ACCCTATC | 0.0783 |
| ACGATCGT | 0.0678 |
| GTGTCCGA | 0.0717 |
| ATCCGGTG | 0.0777 |
| AAGGACTG | 0.066 |
| AACCGGAT | 0.0726 |
| GTGGACGA | 0.0753 |
| AAGTAAGT | 0.0728 |
| AGGAATAG | 0.0765 |
| CGAAACCG | 0.0686 |
| GATGGCTA | 0.073 |
